Over roughly 33,000 sequences, “E-score (-0.5 to 0.5)” has its median near -0.04; the highest 2% begin near 0.36. The list shows a part of the results.
These sequences were tested against T1, Hmlalpha2 (UniProt P0CY09) (assay: PBM E-score (8-mer binding enrichment) (E-score (-0.5 to 0.5)); higher = stronger / more preferred TF binding; most listed sequences are background and not binding sites). Details: protein concentration: 200 nM; construct: GST-full length.
T1 sequence: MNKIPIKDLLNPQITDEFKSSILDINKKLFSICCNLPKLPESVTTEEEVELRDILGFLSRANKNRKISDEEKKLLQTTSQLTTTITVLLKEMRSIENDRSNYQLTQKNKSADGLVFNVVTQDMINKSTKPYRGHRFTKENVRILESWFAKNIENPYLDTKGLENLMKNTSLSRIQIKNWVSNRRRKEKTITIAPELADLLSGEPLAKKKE
Summary of the method: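 Detection of bound protein used fluorescent anti-GST, with scans normalised by masliner. The proteins were GST-tagged yeast transcription factors applied at about 100-200 nM to universal all-10-mer Agilent arrays made double-stranded by primer extension. Each ungapped eight-base word, pooled with its reverse complement, was scored with an E-score from the Universal PBM Analysis Suite.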

Sequence | PBM E-score
AGGTCATC | -0.288
GCCCCAAC | -0.086
AGTCCGTA | -0.0328
GAAGAGCC | -0.156
CCCCTATC | -0.289
ACTCGCAC | -0.214
ACCGCACG | -0.0301
ATATAGTG | -0.0585
ACATAGCG | 0.262
CTTTGCAC | 0.206
CAGGAGAC | -0.0717
GCATCCTA | -0.194
ACAGCCTA | 0.11
ATCAACTG | -0.0655
AAGAGGTC | -0.319
GCCGTTAA | 0.0461
ATCCCAGG | -0.278
CCAGTTAC | -0.106
TGGCAAAA | 0.0108
CCTAAAAA | -0.111
ACCAGACT | -0.0501
ATTTGTGG | -0.034
ACAATTAT | 0.214
ACGAAGTG | 0.115
ATAAGCCG | -0.225

Sequence | PBM E-score
GCGTTCAA | 0.199
TCAAGTAA | 0.265
CTTAAATC | 0.0146
CTCGTTCA | 0.163
ATCCGGGG | -0.186
TAAAACTA | 0.194
TGGCGACA | 0.0218
AATTAACA | 0.425
CTGCTTCC | -0.176
CTATACGC | 0.199
AGAAGTTC | 0.0192
GTCGAAAA | 0.171
ATAATGGC | 0.0247
CAGTCCCA | -0.165
CAACCTAG | 0.0593
AGCCTGGG | -0.185
AATGCTCC | -0.269
CCATGCAA | 0.219
AAAGCATT | 0.0558
ACTGGCTG | -0.286
ACAACTCC | -0.14
GCGACTAC | 0.0703
AACCCAGT | 0.0666
CGATCTAA | 0.133
GGGGGACC | -0.319

Sequence | PBM E-score
CACTGCCA | -0.0577
AAGGTGTA | 0.25
CAAATCCG | -0.112
CAATGGTC | 0.0502
AAGGGAAG | 0.015
AGAATACG | 0.192
CACAACAG | 0.0709
CTTGGTCC | -0.159
GAACACAC | 0.158
AACCGGGA | -0.142
CAGCAGGA | -0.151
TCAGTGCA | -0.0496
AAAGGTTC | -0.148
CCGGCAGA | -0.225
CGGCGATC | -0.133
GCGCCGGA | -0.196
GCTTAACA | 0.378
ATCGAGCC | -0.17
CGGCCCCA | -0.352
TAGTGGAA | -0.123
CTCACATA | 0.0587
TCGGTGCA | -0.0717
CATGCATA | 0.251
TGAAGGCA | -0.0513
GTGCAGAA | 0.0502

Sequence | PBM E-score
AGATTAGC | -0.0707
AGAGACAG | -0.208
CTTGCGAC | -0.285
GCAGAGCA | -0.0388
AACTCCAC | -0.0368
AAGGTCAA | -0.0718
GAGTCCTA | 0.0168
ATAGGGTA | -0.184
CTAGGATC | -0.114
TAATTCCA | 0.144
ATTTGGAA | 0.028
GACCAGGC | -0.25
ACGCTTAT | 0.0536
CAATAGTA | -0.0178
AAGTACTC | 0.022
AAATCCAG | -0.00386
GTTGTCCA | 0.194
GTTCGTAA | 0.217
AGAATGAT | -0.126
CTTTAGTA | -0.0167
AGCTGTGA | -0.0619
TCGAGAGA | -0.135
GCACGACA | 0.115
AAAAGTCG | -0.175
ACGGAATC | -0.0314

Sequence | PBM E-score
GATTCTAC | 0.158
GTGATTAA | 0.166
AAACCAGT | -0.0439
CGGCCGCA | -0.107
CAATCTCA | 0.0269
AACTCCAT | -0.0979
AAACGCGT | 0.312
GCGGTTCC | -0.14
GCAGCCAC | -0.183
ACCCTGTG | 0.156
CCCGGTTA | -0.193
ATACTCCA | -0.0446
CGAACTCA | -0.111
AGTTTGCG | -0.0236
AATATTTC | 0.0665
TAGGAGCA | -0.0738
AAGAATGG | -0.179
CTGCCCTA | -0.277
CGATCGTA | 0.0592
GATGTCGA | 0.126
CTAAGCCC | -0.318
AAGGTAAT | 0.231
CTACCTAG | -0.122
CGAGGGAC | -0.287
AACTGGCG | -0.059

Sequence | PBM E-score
CTACAAGC | 0.28
CTCGTTCC | -0.204
GGTAGCGA | -0.193
ACAAAATG | 0.278
ATACGCTG | 0.058
ATTCTATA | 0.0707
TCCTATCA | -0.172
CATGGGCG | -0.0229
GGACGAGA | -0.126
CTAAGGTC | -0.156
GCCTGAGA | -0.179
AAGAACTC | 0.159
TATACACA | 0.437
GCAAGCAC | -0.0333
ATGTCATG | 0.388
CGTCACAA | 0.0504
CGAGACCA | -0.0743
GATACCGC | 0.0233
ATCATGTA | 0.472
ATTCGTAA | 0.155
CAGTTAGA | -0.175
ATGATCGC | 0.00054
CCCCTCTC | -0.33
AGCGGGAA | -0.01
ATGACACA | 0.302

Sequence | PBM E-score
AATTGATA | 0.127
CTTCCTCA | -0.29
AGATCCTG | -0.148
CAGTACCA | -0.101
CAGTGGAA | -0.216
CCGCATCA | -0.164
GTTACGCA | 0.277
CCTTAACC | -0.0995
CGGATACA | 0.209
AATTGACG | 0.1
CATGGCCA | -0.00377
ACGATTAC | 0.383
GATTAGGC | 0.00274
CCAGAGCA | -0.18
GAAGCTCA | -0.0455
CGCCTCCC | -0.221
AGGCAGCC | -0.253
AAAACGGG | -0.0612
AATTGGGG | -0.26
GCTCAGAC | -0.25
AACCCGTT | -0.106
CACCCAGC | -0.247

Reference: the supplement of paper PMC3334620
